Assay [1] has as its target T1, interleukin-1 receptor type I (rat (endogenous in hippocampus)) (UniProt Q02955).
T1 sequence: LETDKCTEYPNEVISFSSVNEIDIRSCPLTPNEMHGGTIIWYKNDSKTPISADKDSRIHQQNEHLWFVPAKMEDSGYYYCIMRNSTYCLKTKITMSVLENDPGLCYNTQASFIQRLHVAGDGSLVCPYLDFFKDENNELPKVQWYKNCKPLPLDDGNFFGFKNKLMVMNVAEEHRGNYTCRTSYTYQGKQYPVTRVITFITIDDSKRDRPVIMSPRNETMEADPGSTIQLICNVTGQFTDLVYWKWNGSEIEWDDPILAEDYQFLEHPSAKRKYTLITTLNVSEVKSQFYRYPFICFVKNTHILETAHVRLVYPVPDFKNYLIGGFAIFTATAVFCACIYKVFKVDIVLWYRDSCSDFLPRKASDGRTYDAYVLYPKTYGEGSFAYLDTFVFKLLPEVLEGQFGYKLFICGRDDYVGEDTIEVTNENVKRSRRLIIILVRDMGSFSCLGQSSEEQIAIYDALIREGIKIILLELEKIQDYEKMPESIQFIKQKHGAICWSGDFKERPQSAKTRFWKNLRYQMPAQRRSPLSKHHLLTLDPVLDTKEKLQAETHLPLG
Description: co-IP; protein homogenates (200 ug) from rat hippocampi immunoprecipitated with antibodies specific for IL-1RI, GluA1 or GluN2B; western blot of the immunocomplex.

Protein sequences, listed by entry. Tags and fused reporters are not part of them. Residues count along the entry.
UniProt P19490, residues 19-907: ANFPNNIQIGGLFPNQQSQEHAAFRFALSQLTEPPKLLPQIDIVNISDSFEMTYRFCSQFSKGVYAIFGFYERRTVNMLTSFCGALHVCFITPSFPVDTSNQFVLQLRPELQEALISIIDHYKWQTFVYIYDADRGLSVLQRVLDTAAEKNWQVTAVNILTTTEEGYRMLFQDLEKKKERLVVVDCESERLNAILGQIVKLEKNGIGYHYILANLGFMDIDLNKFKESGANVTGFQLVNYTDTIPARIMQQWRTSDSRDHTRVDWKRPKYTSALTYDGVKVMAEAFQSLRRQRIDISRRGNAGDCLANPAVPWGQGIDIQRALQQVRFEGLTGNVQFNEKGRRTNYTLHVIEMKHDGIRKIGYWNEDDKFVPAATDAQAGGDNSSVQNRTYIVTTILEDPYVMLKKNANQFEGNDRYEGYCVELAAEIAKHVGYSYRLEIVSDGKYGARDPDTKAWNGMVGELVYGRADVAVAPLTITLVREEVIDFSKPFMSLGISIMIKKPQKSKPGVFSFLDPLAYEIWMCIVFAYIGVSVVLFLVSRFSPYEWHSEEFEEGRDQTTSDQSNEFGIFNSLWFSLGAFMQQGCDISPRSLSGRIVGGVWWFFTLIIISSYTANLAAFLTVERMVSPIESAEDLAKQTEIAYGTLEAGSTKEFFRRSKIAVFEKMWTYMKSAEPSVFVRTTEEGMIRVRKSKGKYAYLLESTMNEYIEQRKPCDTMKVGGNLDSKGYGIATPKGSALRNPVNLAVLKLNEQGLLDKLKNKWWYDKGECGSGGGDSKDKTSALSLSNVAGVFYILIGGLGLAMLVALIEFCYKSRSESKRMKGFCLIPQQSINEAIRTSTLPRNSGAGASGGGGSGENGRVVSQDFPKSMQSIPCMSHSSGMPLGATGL
UniProt Q00960, residues 27-1482: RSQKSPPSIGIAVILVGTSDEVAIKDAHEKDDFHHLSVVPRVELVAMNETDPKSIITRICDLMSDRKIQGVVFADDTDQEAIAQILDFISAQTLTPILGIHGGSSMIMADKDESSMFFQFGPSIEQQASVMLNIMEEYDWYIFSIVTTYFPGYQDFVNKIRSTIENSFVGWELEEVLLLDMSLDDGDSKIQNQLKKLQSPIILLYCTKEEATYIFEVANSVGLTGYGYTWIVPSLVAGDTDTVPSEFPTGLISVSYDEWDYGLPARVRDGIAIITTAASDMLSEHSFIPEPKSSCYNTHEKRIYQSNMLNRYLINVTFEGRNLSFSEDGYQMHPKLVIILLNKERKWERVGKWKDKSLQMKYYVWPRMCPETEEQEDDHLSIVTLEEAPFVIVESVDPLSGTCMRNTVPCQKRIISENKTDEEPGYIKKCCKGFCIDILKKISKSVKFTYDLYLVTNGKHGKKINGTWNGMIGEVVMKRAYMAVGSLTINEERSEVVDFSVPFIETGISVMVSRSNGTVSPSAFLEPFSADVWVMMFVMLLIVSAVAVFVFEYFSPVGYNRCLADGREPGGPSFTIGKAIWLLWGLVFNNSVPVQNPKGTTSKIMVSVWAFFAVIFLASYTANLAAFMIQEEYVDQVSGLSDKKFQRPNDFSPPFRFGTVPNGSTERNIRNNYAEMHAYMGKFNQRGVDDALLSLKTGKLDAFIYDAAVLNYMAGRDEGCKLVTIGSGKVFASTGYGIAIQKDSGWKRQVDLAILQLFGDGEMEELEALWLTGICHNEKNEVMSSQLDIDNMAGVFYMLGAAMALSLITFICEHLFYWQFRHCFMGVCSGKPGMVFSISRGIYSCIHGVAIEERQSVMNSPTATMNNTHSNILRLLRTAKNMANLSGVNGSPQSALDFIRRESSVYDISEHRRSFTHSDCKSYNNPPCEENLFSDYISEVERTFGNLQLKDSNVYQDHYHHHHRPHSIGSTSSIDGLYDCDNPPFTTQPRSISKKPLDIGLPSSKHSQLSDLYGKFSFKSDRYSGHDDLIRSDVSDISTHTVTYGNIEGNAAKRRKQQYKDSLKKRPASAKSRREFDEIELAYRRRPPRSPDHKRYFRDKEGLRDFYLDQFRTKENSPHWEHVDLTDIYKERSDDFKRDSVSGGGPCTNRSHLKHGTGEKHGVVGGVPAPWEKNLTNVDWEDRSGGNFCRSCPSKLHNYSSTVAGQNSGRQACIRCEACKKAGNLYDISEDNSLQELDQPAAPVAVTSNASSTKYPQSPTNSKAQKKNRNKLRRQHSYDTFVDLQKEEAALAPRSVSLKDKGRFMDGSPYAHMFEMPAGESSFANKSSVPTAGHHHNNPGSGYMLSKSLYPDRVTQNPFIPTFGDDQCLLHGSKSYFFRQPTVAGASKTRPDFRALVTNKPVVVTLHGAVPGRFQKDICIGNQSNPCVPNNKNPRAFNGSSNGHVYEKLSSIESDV
UniProt Q6Y1S1: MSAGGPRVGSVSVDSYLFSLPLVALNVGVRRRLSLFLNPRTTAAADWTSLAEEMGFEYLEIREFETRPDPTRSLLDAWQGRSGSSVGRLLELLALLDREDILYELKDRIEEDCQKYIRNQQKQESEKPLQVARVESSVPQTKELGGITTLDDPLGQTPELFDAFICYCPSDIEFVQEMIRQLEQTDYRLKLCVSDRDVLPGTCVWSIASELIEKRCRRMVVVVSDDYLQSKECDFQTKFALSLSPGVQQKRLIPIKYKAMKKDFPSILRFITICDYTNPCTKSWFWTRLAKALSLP

Assay [2] deals with T1, interleukin-1 receptor type I (rat (endogenous in hippocampus)). The experiment in a line: co-IP; IL-1RI immunoprecipitated from total lysates of primary hippocampal neurons treated or not with NMDA (50 uM, 10 min) or IL-1beta (0.05 ng/ml, 30 min); western blot for GluN2B.
In assay [3] the target is T2, fusion protein of the cytoplasmic domain of IL-1RI with GST (UniProt P14778).
T2 sequence: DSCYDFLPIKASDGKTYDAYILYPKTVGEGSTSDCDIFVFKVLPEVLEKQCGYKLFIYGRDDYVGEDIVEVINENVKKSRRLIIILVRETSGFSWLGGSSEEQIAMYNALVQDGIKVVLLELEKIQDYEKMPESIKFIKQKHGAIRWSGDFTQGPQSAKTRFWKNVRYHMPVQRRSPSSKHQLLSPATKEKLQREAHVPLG
The experiment in a line: pull-down; GST fusion proteins on affinity beads incubated with total homogenate from rat hippocampus (text: lysates from rat hippocampal neurons), extensively washed; immunoblot with GluN2B antibody; only the target purified.

Assay [4] concerns the target GluA1 subunit of AMPA receptors (rat (endogenous in hippocampus)) (UniProt P19490). Description: co-IP; protein homogenates (200 ug) from rat hippocampi immunoprecipitated with antibodies specific for IL-1RI, GluA1 or GluN2B; western blot of the immunocomplex.
Assay [5] has as its target GluN2B subunit of the NMDA receptor (rat (endogenous in hippocampus)) (UniProt Q00960). The assay is described as above.

No constants are given. Whether binding was seen depends on the method and setting. In cells and extracts the contact can be indirect. Some entries that bind do so weakly or less than the wild type. For some assays here: Sequences can lack the tags named with a protein.

Consider “GluN2B subunit of the NMDA receptor (from UniProt Q00960 27-1482)”, for which the binding result in assay [1], in assay [2] and in assay [3] was “binds” each time.

“myeloid differentiation primary response protein 88 (from UniProt Q6Y1S1 1-296)”: the results for the binding result in assay [4], in assay [5] and in assay [1] were “no binding”, “binds” and “binds”, respectively.

B1: IL-1R accessory protein (protein, UniProt Q63621 21-570)
chain: SERCDDWGLDTMRQIQVFEDEPARIKCPLFEHFLKYNYSTAHSSGLTLIWYWTRQDRDLEEPINFRLPENRISKEKDVLWFRPTLLNDTGNYTCMLRNTTYCSKVAFPLEVVQKDSCFNSPMRLPVHRLYIEQGIHNITCPNVDGYFPSSVKPSVTWYKGCTEIVNFHNVQPKGMNLSFFIPLVSNNGNYTCVVTYLENGRLFHLTRTMTVKVVGSPKDAVPPHIYSPNDRVVYEKEPGEELVIPCKVYFSFIMDSHNEIWWTIDGKKPDDVPVDITIIESVSYSSTEDETRTQILSIKKVTPEDLKRNYVCHARNAEGEAEQAAKVKQKVIPPRYTVELACGFGATVFLVVVLIVVYHVYWLEMVLFYRAHFGTDETILDGKEYDIYVSYARNAEEEEFVLLTLRGVLENEFGYKLCIFDRDSFPGGIVTDETLSFIQKSRRLLVVLSPNYVLQGTQALLELKAGLENMASRGNINVILVQYKAVKDLKVKELKRAKSVLTVIKWKGEKSKYPQGRFWKQLQVAMPVKKSPRWSSSDKQGLSYSSLKNV
Turning to B1, the values for the binding result in assay [4], in assay [5] and in assay [1] were “no binding”, “binds” and “binds”, respectively.

B2: interleukin-1 receptor type I (receptor, UniProt Q02955 20-576)
chain: LETDKCTEYPNEVISFSSVNEIDIRSCPLTPNEMHGGTIIWYKNDSKTPISADKDSRIHQQNEHLWFVPAKMEDSGYYYCIMRNSTYCLKTKITMSVLENDPGLCYNTQASFIQRLHVAGDGSLVCPYLDFFKDENNELPKVQWYKNCKPLPLDDGNFFGFKNKLMVMNVAEEHRGNYTCRTSYTYQGKQYPVTRVITFITIDDSKRDRPVIMSPRNETMEADPGSTIQLICNVTGQFTDLVYWKWNGSEIEWDDPILAEDYQFLEHPSAKRKYTLITTLNVSEVKSQFYRYPFICFVKNTHILETAHVRLVYPVPDFKNYLIGGFAIFTATAVFCACIYKVFKVDIVLWYRDSCSDFLPRKASDGRTYDAYVLYPKTYGEGSFAYLDTFVFKLLPEVLEGQFGYKLFICGRDDYVGEDTIEVTNENVKRSRRLIIILVRDMGSFSCLGQSSEEQIAIYDALIREGIKIILLELEKIQDYEKMPESIQFIKQKHGAICWSGDFKERPQSAKTRFWKNLRYQMPAQRRSPLSKHHLLTLDPVLDTKEKLQAETHLPLG
For the molecule B2, the binding result in assay [4] is given as “no binding”; in assay [5] it was “binds”.

These data come from publication PMC3045339.
